Laboratory results taken from the supplement of paper PMC7125110.
± gives the standard error. This sample is rich in variants without activity.

B1: glmS ribozyme (parent)
chain: AUAAAAGCGCCAGAACUACAGAAAUGUAGUUGACGAGGAGGAGGUUUAUCGAAUUUUCGGCGGAUGCCUCCAAA

Variants of: B1
Test: self-cleavage kobs at 2500 uM GlcN6P; higher = faster cleavage; RNA array
Conditions: with glucosamine-6-phosphate
Method in brief: (§1)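 Glucosamine-6-phosphate (40 μM to 10 mM) in HEPES/KCl/Mg(OAc)2 buffer was flowed over sequenced MiSeq chips, and tiles were imaged over ~14 h. Barcoded ribozyme variants there had been transcribed in situ by E. coli RNA polymerase and were tracked through a hybridised Cy3 probe at 37 °C. One- or two-exponential decay fits to per-tile medians, normalised to baseline and to non-cleaving reference variants, gave kobs. kcat and KM came from weighted Michaelis–Menten fits across concentrations.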

Point of comparison: A33C A53U U54G, “self-cleavage kobs at 2500 uM GlcN6P” value 0.000173 ± 4.3e-05 s⁻¹. Against it:
- G29A G32U A33C — lower, < 1e-05 s⁻¹
- G9A A42C G63A — lower, < 1e-05 s⁻¹
- G13A U31G G35C U47G — lower, < 1e-05 s⁻¹
- C10U U47C C71A — lower, < 1e-05 s⁻¹
- C8G C10G A39C — lower, < 1e-05 s⁻¹
- C10U U31C A33U G43C — lower, < 1e-05 s⁻¹
- G32C A53U U54G C71A — lower, < 1e-05 s⁻¹
- G9U U30C A33G A53G U56G — lower, < 1e-05 s⁻¹
- A12G G32U U45G G59U — lower, < 1e-05 s⁻¹
- C11G A36G C71G — lower, < 1e-05 s⁻¹
- U30A A39C U49A U57A — lower, < 1e-05 s⁻¹
- G29U G38C C61G G63U — lower, < 1e-05 s⁻¹
- C8G U46A C50U — lower, < 1e-05 s⁻¹
- C10A A33U A42C — lower, < 1e-05 s⁻¹
- G9U C10G G66C — lower, < 1e-05 s⁻¹
- G32C G41U G43C — lower, < 1e-05 s⁻¹
- A14C C58A G63A — lower, < 1e-05 s⁻¹
- G9U C16U G32A — lower, < 1e-05 s⁻¹
- G9U U31A G37A — lower, < 1e-05 s⁻¹
- A15C G44A C58G G62U — lower, < 1e-05 s⁻¹
- A14U U30G A48C G51U — lower, < 1e-05 s⁻¹
- A33G A52G G63A — lower, < 1e-05 s⁻¹
- A15C U31A G43C A48C A64G — lower, < 1e-05 s⁻¹
- C8G C10A G43U U55A — lower, < 1e-05 s⁻¹
- A12C U54G C71U — 20-fold higher, 0.00338 ± 0.0011 s⁻¹
- A15U G29C G40U — 5.5-fold lower, 3.13e-05 ± 1.2e-05 s⁻¹
- A12C A15C A64C — lower, < 1e-05 s⁻¹
- C8G A15U C58U — lower, < 1e-05 s⁻¹
- A15G A39U G40A C61A — lower, < 1e-05 s⁻¹
- G32U G38C G40C U57C C67A — lower, < 1e-05 s⁻¹
- C11G U31C A33G C61U — lower, < 1e-05 s⁻¹
- C11A G21U A39C U46A U57C — lower, < 1e-05 s⁻¹
- G13U A15C U54C — within error, 0.00013 ± 3.3e-05 s⁻¹
- G9U G38C C67U C70G — lower, < 1e-05 s⁻¹
- U31C G38A G40A — lower, < 1e-05 s⁻¹
- C8G G13U U31C G38A U57C U69C C71U — lower, < 1e-05 s⁻¹
- C10A G44C A48C — lower, < 1e-05 s⁻¹
- G9C G13C C34A G62C A64G — lower, < 1e-05 s⁻¹
- G9A U45A A52G G60A A64C — lower, < 1e-05 s⁻¹
- G32U C61A C71A — lower, < 1e-05 s⁻¹
- A33U G41U G66U C67G — lower, < 1e-05 s⁻¹
- C8G C10G C70G — lower, < 1e-05 s⁻¹
- A12U G44U C67U — 97-fold higher, 0.0167 ± 0.0049 s⁻¹
- C8U G29C U30G G37A U47A G63U C70U — lower, < 1e-05 s⁻¹
- C8U G41U G62U — lower, < 1e-05 s⁻¹
- C10G A14U G35U G60C — lower, < 1e-05 s⁻¹
- C11A G43U U54G — lower, < 1e-05 s⁻¹
- C8A A33U G38C U49A — lower, < 1e-05 s⁻¹
- A14G G51C A64U C67G C71U — lower, < 1e-05 s⁻¹
- C16U A48G — 2.6-fold lower, 6.63e-05 ± 1.1e-05 s⁻¹
- C11G U46C C70U — lower, < 1e-05 s⁻¹
- G7U C58G A64C — lower, < 1e-05 s⁻¹
- C10U A15U A64U — lower, < 1e-05 s⁻¹
- A12G C16U U31G C34A G63C — lower, < 1e-05 s⁻¹
- G7U U31G A48U A52C C58U — lower, < 1e-05 s⁻¹
- A33C C50U U56C — lower, < 1e-05 s⁻¹
- A15U U45A U57C — 4-fold lower, 4.29e-05 ± 1.9e-05 s⁻¹
- C11A U46C G60U C71U — lower, < 1e-05 s⁻¹
- C8A C10U G29C U49C C61G C70A — lower, < 1e-05 s⁻¹
- C10G C19A A39U U69C — lower, < 1e-05 s⁻¹
- C11A A39G G44A — lower, < 1e-05 s⁻¹
- C16G U55G G62A — lower, < 1e-05 s⁻¹
- G9A G13U C34G U57G C61U — lower, < 1e-05 s⁻¹
- C10A C34G U49C C50U — lower, < 1e-05 s⁻¹
- G32C G37C G40C G62C C68A — lower, < 1e-05 s⁻¹
- G9A C16G G38U G43C A48C C50A C70A — lower, < 1e-05 s⁻¹
- U30G G37C C58U — lower, < 1e-05 s⁻¹
- G32U U55A C70U — 2.3-fold higher, 0.000404 ± 8e-05 s⁻¹
- G32U G38A U47A U65C — lower, < 1e-05 s⁻¹
- C8U G38A C70A — lower, < 1e-05 s⁻¹
- A14C A48C — 3.5-fold lower, 4.95e-05 ± 1.2e-05 s⁻¹
- G32A A36U A42C C71G — lower, < 1e-05 s⁻¹
- A15C G37A A53C G60U — lower, < 1e-05 s⁻¹
- A14C G21U G26U A36C — lower, < 1e-05 s⁻¹
- A12U G38U U49A — lower, < 1e-05 s⁻¹
- A15C G66U U69C — 3.8-fold lower, 4.52e-05 ± 1.5e-05 s⁻¹
- U30G A53C A64U — lower, < 1e-05 s⁻¹
- G9C G35U — lower, < 1e-05 s⁻¹
- G13U G66C C68U — lower, < 1e-05 s⁻¹

Variants of: B1
Test: self-cleavage kobs at 10000 uM GlcN6P; higher = faster cleavage; RNA array
Conditions: with glucosamine-6-phosphate
Method in brief: as §1

Point of comparison: A14C A48C, “self-cleavage kobs at 10000 uM GlcN6P” value 4.92e-05 ± 1.2e-05 s⁻¹. Against it:
- G9U C16U G32A — lower, < 1e-05 s⁻¹
- G13U A15C U54C — 2.5-fold higher, 0.000122 ± 1.9e-05 s⁻¹
- C8G C10G C70G — lower, < 1e-05 s⁻¹
- C16U A48G — within error, 6.95e-05 ± 8.6e-06 s⁻¹
- C10A C34G U49C C50U — lower, < 1e-05 s⁻¹
- G9C G35U — lower, < 1e-05 s⁻¹
